According to the supplement of paper PMC10126150:
Values marked as one replicate rest on one cluster of the flow cell; about a third of the high ones do not repeat.

System: ATP
Assay: switch fluorescence ratio, 500 uM ATP over buffer (Cy3 cluster intensity, sum of 5 cycles each) (fold (ratio)); higher = stronger signal-on switching upon ATP binding; sequences stand for … in TCGTCGGCAGCGTCAGATGTGTATAAGAGACAGTTTTTTTTTTTTTTTTTTTTTTTTT…TC
Details: aptamer strand: ATP DNA aptamer (quencher-CACCTGGGGGAGTATTGCGGAGGAAGG + anchor), 100 nM annealed; ATP concentration: 500 uM; one replicate
Summary of the method: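 Clusters with intensities outside 100-1000 RFU were excluded. The remaining Cy3-labelled switching-strand clusters on a modified Illumina MiSeq flow-cell had been annealed to 100 nM quencher-labelled ATP aptamer and imaged in selection buffer, then after 15 min with 500 uM ATP at 22 °C, for five cycles separated by NaOH stripping and re-annealing. The fluorescence ratio, averaged per switch-domain sequence, is each cluster's summed target-cycle Cy3 intensity over its summed buffer-cycle Cy3 intensity.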
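Note: ATP exposure 15 min at 22 °C before imaging.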

GTGACAACTA
switch fluorescence ratio: 0.994

TGGTTACTTT
switch fluorescence ratio: 0.964

CGGGACCTAG
switch fluorescence ratio: 0.988

GCTGTCGATA
switch fluorescence ratio: 0.957

TTCATTGCAC
switch fluorescence ratio: 1.06

CTTTTGCCGT
switch fluorescence ratio: 0.948

TAAGAGTTTC
switch fluorescence ratio: 1.02

GAGCCTGGGA
switch fluorescence ratio: 0.968

CTCAACAGT
switch fluorescence ratio: 1.01

AGGAAGCGTG
switch fluorescence ratio: 1.02

CAGCGGTGCG
switch fluorescence ratio: 1.08

TTAGATGTG
switch fluorescence ratio: 0.979

CGGTAGAATA
switch fluorescence ratio: 0.978

AACTAAGCGG
switch fluorescence ratio: 0.988

CACGTTTCTT
switch fluorescence ratio: 1

ATACACAAAA
switch fluorescence ratio: 1.13

GTCATCTATG
switch fluorescence ratio: 1.04

AAGAGGCTGC
switch fluorescence ratio: 0.982

AGGGGATTTC
switch fluorescence ratio: 0.965

CTACTCTTAT
switch fluorescence ratio: 1.05

CTAGGTTGAA
switch fluorescence ratio: 0.959

GTTATGTGCT
switch fluorescence ratio: 0.974

ATCCTGTTCG
switch fluorescence ratio: 0.974

TGGACTGTGG
switch fluorescence ratio: 0.991

GGCAAACGCT
switch fluorescence ratio: 1.02

AGTGGTATTG
switch fluorescence ratio: 0.99

CGTCAACCGC
switch fluorescence ratio: 1.23

AGGTCCAGGG
switch fluorescence ratio: 1.14

ATTTGCACGG
switch fluorescence ratio: 1.03

GAGGTGCGCT
switch fluorescence ratio: 0.964

GCGCATGTG
switch fluorescence ratio: 0.982

GGAGATCGG
switch fluorescence ratio: 1.03

TGTGTGCCGA
switch fluorescence ratio: 1.05

GCGCATGCGC
switch fluorescence ratio: 0.974

TTACGCTTGT
switch fluorescence ratio: 1.21

AATTCTAGT
switch fluorescence ratio: 0.999

AGCAGAGCCC
switch fluorescence ratio: 0.99

AGTAGCATGC
switch fluorescence ratio: 1.07

AGCCTAAAC
switch fluorescence ratio: 1.06

ATGCTGAGCA
switch fluorescence ratio: 0.999

TATGGTAATG
switch fluorescence ratio: 0.986

AGGCGTGAGC
switch fluorescence ratio: 1.06

ATATAAAAGT
switch fluorescence ratio: 1.02

TGATCCGTTA
switch fluorescence ratio: 1.04

CTGGAGTTAA
switch fluorescence ratio: 1.56

ATTGCGGCGG
switch fluorescence ratio: 1.05

TGCCGACCGT
switch fluorescence ratio: 1.02

GTTAGTTCCT
switch fluorescence ratio: 1

AACAGCACTG
switch fluorescence ratio: 1.22

TACTGGATTT
switch fluorescence ratio: 0.984

CCTCTTGGCG
switch fluorescence ratio: 1.01

CCGTTCTAGG
switch fluorescence ratio: 1.01

ATGGCCGATC
switch fluorescence ratio: 0.982

TATTGGTAAG
switch fluorescence ratio: 1.02

CTCCAACGTT
switch fluorescence ratio: 1.07

ACGGTACCCA
switch fluorescence ratio: 1.42

ATGTGTGCGA
switch fluorescence ratio: 1.03

GCACAATATA
switch fluorescence ratio: 0.99

TTTCTCGATT
switch fluorescence ratio: 0.994

TTAACGTACC
switch fluorescence ratio: 1.7

GGGCTTATAT
switch fluorescence ratio: 1.25

TAGAATTAGC
switch fluorescence ratio: 0.963

AGATTTTA
switch fluorescence ratio: 0.966

CGTGGAGTAT
switch fluorescence ratio: 1.01

TCGGATACGT
switch fluorescence ratio: 1.01

CGAGTAGCAT
switch fluorescence ratio: 1.06

TTGTGCATTG
switch fluorescence ratio: 1.06

GATTGAGTCG
switch fluorescence ratio: 0.95

GCCCGAGGTT
switch fluorescence ratio: 1.03

AATGATTGGT
switch fluorescence ratio: 0.978

GTGTAATAGA
switch fluorescence ratio: 0.98

AGCCAGTGGG
switch fluorescence ratio: 1.08

GGGGCCATAA
switch fluorescence ratio: 0.986

AATATAAGG
switch fluorescence ratio: 1

GCCGAACGAG
switch fluorescence ratio: 1.09

GTTAGCTAAC
switch fluorescence ratio: 1.15

TATGTGACGG
switch fluorescence ratio: 0.982

TTGGTGCGCG
switch fluorescence ratio: 0.993

GATTCGTATG
switch fluorescence ratio: 0.905

TTTAGTGATT
switch fluorescence ratio: 1.01

GACATTCCTC
switch fluorescence ratio: 1.09

CCGAGCGTCG
switch fluorescence ratio: 1.31

TTATCTCGCG
switch fluorescence ratio: 0.988

CCATACTGCC
switch fluorescence ratio: 1.4

TCGATTCG
switch fluorescence ratio: 1.02
